Measured values reported in patent US20190330338A1 (published 2019).
Read-outs that look alike come from different tables or passages of the source.

What was measured:
recombinant CD229 [1] = molecular target: T1, recombinant CD229 (human, UniProt Q9HBG7 48-454); experiment: SPR
T1 chain: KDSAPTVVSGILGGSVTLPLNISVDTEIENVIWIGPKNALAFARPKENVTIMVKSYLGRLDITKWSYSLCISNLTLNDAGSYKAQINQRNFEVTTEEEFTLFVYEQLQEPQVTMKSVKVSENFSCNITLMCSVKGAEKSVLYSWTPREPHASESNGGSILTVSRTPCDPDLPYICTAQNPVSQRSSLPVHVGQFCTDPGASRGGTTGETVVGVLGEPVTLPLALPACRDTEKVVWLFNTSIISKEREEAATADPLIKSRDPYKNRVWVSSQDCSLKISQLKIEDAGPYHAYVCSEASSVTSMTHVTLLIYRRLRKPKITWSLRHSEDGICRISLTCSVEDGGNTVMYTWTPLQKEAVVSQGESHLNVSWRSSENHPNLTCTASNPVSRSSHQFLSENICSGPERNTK

recombinant CD229 [2] = molecular target: T1, recombinant CD229; experiment: SPR

Kd (recombinant CD229 [1]): 22.9 nM | Kd (recombinant CD229 [2]): 22.9 nM
B1: anti-CD229 antibody clone 2D3 expressed as scFv-Fc (Fc fusion)
chain: QVQLVESGGGLVQPGRSLRLSCAASGFTFDDYAMHWVRQAPGKGLEWVSGISWNSGSIGYADSAKGRFTISRDNSKNTLYLQMNSLRAEDTAVYYCAKRGNSNSFDYWGQGTLVTVSSLEGGGGSGGGGSGGGAS[about 100 residues left out here]
